Test results as given in the supplement of paper PMC3334620.
The full ranking holds about 33,000 sequences; the median of “E-score (-0.5 to 0.5)” is about -0.032, and the highest 2% start at about 0.36. This is one part of the list.

Each sequence was assayed against T1, Sko1 (UniProt Q02100) (assay: PBM E-score (8-mer binding enrichment) (E-score (-0.5 to 0.5)); higher = stronger / more preferred TF binding; most listed sequences are background and not binding sites). Conditions: protein concentration: 200 nM; construct: GST-full length.
T1 sequence: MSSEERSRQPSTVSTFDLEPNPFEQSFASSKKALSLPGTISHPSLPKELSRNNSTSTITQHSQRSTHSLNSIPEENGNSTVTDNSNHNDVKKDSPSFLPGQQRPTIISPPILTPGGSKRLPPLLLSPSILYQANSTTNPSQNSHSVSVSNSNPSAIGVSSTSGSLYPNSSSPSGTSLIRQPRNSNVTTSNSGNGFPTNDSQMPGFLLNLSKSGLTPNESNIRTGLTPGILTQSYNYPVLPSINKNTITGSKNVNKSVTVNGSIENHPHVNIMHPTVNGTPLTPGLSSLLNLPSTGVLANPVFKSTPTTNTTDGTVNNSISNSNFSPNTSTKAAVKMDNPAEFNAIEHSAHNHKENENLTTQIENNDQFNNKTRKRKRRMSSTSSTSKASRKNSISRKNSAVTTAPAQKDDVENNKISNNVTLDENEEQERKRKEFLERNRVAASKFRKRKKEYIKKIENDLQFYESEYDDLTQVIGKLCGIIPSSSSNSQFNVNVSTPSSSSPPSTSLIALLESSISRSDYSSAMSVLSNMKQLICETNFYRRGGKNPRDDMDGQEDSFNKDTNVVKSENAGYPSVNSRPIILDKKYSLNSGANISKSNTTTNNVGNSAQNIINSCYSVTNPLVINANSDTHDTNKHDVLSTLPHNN
Outline: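 GST-tagged yeast TFs (full-length or DNA-binding domain) were made by PURExpress in vitro transcription/translation and applied at about 100-200 nM to universal all-10-mer Agilent arrays. The arrays were made double-stranded by primer extension, on fresh or once-stripped slides. Bound protein was detected with fluorescent anti-GST, and scans were normalised with masliner. Each ungapped eight-base word, pooled with its reverse complement, received an E-score (modified Wilcoxon-Mann-Whitney statistic) from the Universal PBM Analysis Suite.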
With CTCTCACC the “PBM E-score” value was -0.0114. AACACCGT was tested, and the “PBM E-score” value was -0.165. In the case of GACCAGCA, the “PBM E-score” value is reported as -0.185. CCCTCTTA was tested, and the “PBM E-score” value was -0.154. For CAACGTAC, the “PBM E-score” value was 0.326. With AAGGCTTG the “PBM E-score” value was -0.0724. For CCAGCGGA, the “PBM E-score” value was -0.361. For ACTAAATA, the “PBM E-score” value was 0.167. With CGATAGCG the “PBM E-score” value was -0.13. With ACGCATGC the “PBM E-score” value was 0.319. CTATAATA was tested, and the “PBM E-score” value was -0.0473. For AGGGGTAT, the “PBM E-score” value was -0.361. In the case of CAAGCATA, the “PBM E-score” value is reported as 0.0343. For GTCGCGGA, the “PBM E-score” value was -0.288. For AACATAGC, the “PBM E-score” value was -0.0664. CACATCCA was tested, and the “PBM E-score” value was 0.0329. With GCATAGGC the “PBM E-score” value was -0.159. For ACGCCGTA, the “PBM E-score” value was 0.0587. ACAACACT was tested, and the “PBM E-score” value was 0.0913. With CCAAATAC the “PBM E-score” value was 0.0904. In the case of CTCGGAAA, the “PBM E-score” value is reported as -0.0573. CTTGCAGA was tested, and the “PBM E-score” value was -0.0456. In the case of GGATGTTA, the “PBM E-score” value is reported as 0.0128. For GTAAAAGA, the “PBM E-score” value was 0.242. With ACCAAAGT the “PBM E-score” value was -0.00709. For TTCCTCAA, the “PBM E-score” value was -0.0344. In the case of ACAGCTGG, the “PBM E-score” value is reported as -0.182. CGAAGCAG was tested, and the “PBM E-score” value was -0.0386. AACCAGTG was tested, and the “PBM E-score” value was -0.162. With GAAAGCGC the “PBM E-score” value was -0.0196. In the case of GAACCTTC, the “PBM E-score” value is reported as -0.189. With CTAATTTA the “PBM E-score” value was 0.261. For CCTAGACG, the “PBM E-score” value was 0.134. In the case of CACTGCAG, the “PBM E-score” value is reported as -0.064. AGATTCGC was tested, and the “PBM E-score” value was 0.133. In the case of ATACCACG, the “PBM E-score” value is reported as 0.195. ATGGCGTG was tested, and the “PBM E-score” value was 0.336. For CGTGTACA, the “PBM E-score” value was 0.319. CACTTTAA was tested, and the “PBM E-score” value was 0.14. With CCGCCGCG the “PBM E-score” value was -0.187. In the case of ATCCTTTG, the “PBM E-score” value is reported as -0.0173. ACCTTTTA was tested, and the “PBM E-score” value was -0.0142. In the case of GTATGCAC, the “PBM E-score” value is reported as 0.182. With CACTTTTC the “PBM E-score” value was 0.0153. GATCGGCC was tested, and the “PBM E-score” value was -0.132. With CCTGGATA the “PBM E-score” value was -0.216. For ATGCCCGG, the “PBM E-score” value was -0.334. AAAATCCT was tested, and the “PBM E-score” value was -0.0331. For ACCAGCTC, the “PBM E-score” value was -0.0776. CGTCAACG was tested, and the “PBM E-score” value was 0.389. For ACATCGCG, the “PBM E-score” value was 0.214. TAAGTTAA was tested, and the “PBM E-score” value was 0.134. With TCGGTAAA the “PBM E-score” value was 0.075. In the case of CCTGCCGC, the “PBM E-score” value is reported as -0.199. In the case of GATTGTGC, the “PBM E-score” value is reported as -0.164. For ACTGACGA, the “PBM E-score” value was 0.364. In the case of AGATACTC, the “PBM E-score” value is reported as 0.0307. With AGTCTCCG the “PBM E-score” value was -0.0847. For GAAAAATA, the “PBM E-score” value was 0.201. GCTGCCAC was tested, and the “PBM E-score” value was -0.0429. AAGGACAT was tested, and the “PBM E-score” value was 0.0657. GAGTACTC was tested, and the “PBM E-score” value was -0.261. For GCAGTGTA, the “PBM E-score” value was 0.1. TGGTGGAA was tested, and the “PBM E-score” value was -0.086. With AACACTCA the “PBM E-score” value was -0.0484. For AGGAGCCA, the “PBM E-score” value was -0.258. For ACAGGCCG, the “PBM E-score” value was -0.264. AGTCTTGA was tested, and the “PBM E-score” value was -0.072. AACTGGAC was tested, and the “PBM E-score” value was 0.00123. With ATACGCAA the “PBM E-score” value was 0.447. With ACTGGGGA the “PBM E-score” value was -0.277. CGATTCAC was tested, and the “PBM E-score” value was 0.124. For AAGAAGCG, the “PBM E-score” value was -0.203. With AGGACACG the “PBM E-score” value was -0.0653. In the case of AATTATCA, the “PBM E-score” value is reported as 0.28. For AATAAGCA, the “PBM E-score” value was 0.121. For GAACGAGC, the “PBM E-score” value was -0.0808. In the case of AGGGTCGC, the “PBM E-score” value is reported as -0.188. With CCGGGCTC the “PBM E-score” value was -0.44. With ACGCCAAG the “PBM E-score” value was -0.0349. GCGGGAAC was tested, and the “PBM E-score” value was -0.246. With GATGGTGA the “PBM E-score” value was 0.126. For CCCACCAC, the “PBM E-score” value was -0.119. In the case of GACTGCGA, the “PBM E-score” value is reported as -0.144. In the case of AACCTCCA, the “PBM E-score” value is reported as -0.377. In the case of CACGAACG, the “PBM E-score” value is reported as 0.0658. With CGCTGGAG the “PBM E-score” value was -0.272. CTAACGTC was tested, and the “PBM E-score” value was 0.338. For GAGTGACA, the “PBM E-score” value was 0.117. In the case of GAGGACTA, the “PBM E-score” value is reported as -0.236. For ATCTACCA, the “PBM E-score” value was 0.0297. In the case of ACCGCCTG, the “PBM E-score” value is reported as -0.251. For ATGCCTAA, the “PBM E-score” value was 0.00572. For GCTGCTGA, the “PBM E-score” value was -0.0842. With AGGTGCGA the “PBM E-score” value was -0.0564. With AGAAAGAA the “PBM E-score” value was -0.0484. For ATTTTTCC, the “PBM E-score” value was -0.00951. With CTGGAAGA the “PBM E-score” value was -0.118. With AACCCCAG the “PBM E-score” value was -0.338. For AACTGCGA, the “PBM E-score” value was -0.148. In the case of AACCCCCG, the “PBM E-score” value is reported as -0.362. TCATTCGA was tested, and the “PBM E-score” value was 0.229. TAGATAGA was tested, and the “PBM E-score” value was 0.0341. For AAACCGGG, the “PBM E-score” value was -0.07. In the case of CCAACGCC, the “PBM E-score” value is reported as -0.221. In the case of ATTGCAAC, the “PBM E-score” value is reported as 0.00403. In the case of CAAGCTGG, the “PBM E-score” value is reported as -0.243. For CTAGTTCA, the “PBM E-score” value was -0.0321. In the case of AGGGATAG, the “PBM E-score” value is reported as -0.141.
